Source: the supplement of paper PMC11417369
± gives the standard deviation of the averaged measurements. The list shows a part of the results.

tested on: PfAP2-EXP AP2 domain (GST-tagged); test: gcPBM binding intensity (ln(normalized median fluorescence intensity)); higher = stronger DNA binding
In short: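 Alexa488 anti-GST antibody, scanned at 488 nm, detected GST-tagged P. falciparum DNA-binding domains that had been expressed in E. coli and incubated for 1 h on an Agilent 4 × 180k array. The array carried primer-extended double-stranded 36-bp intergenic genomic probes and negative controls. Binding intensity is the highest Masliner-normalised natural-log median intensity across replicate spots of either orientation of each probe.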

Row | Sequence | gcPBM binding intensity (ln)
1 | TATTAACTCAATAGCGCACACTTTTAATATTTTATA [CACACA_site4973] | 8.96 ± 0.16
2 | ATTTGACACGTATATGCACACACCCGTAAGTGTCCA [CACACA_site8891] | 9.09 ± 0.4
3 | TCATAAAAAGGAATCTTTAAGATATTTTATAAGCTC [XGTACX_negctrl_site18] | 8.06 ± 0.5
4 | ATGTGATAATTTAGGAGTACTGTCATAAGCATTTCT [XGTACX_site3091] | 8.52 ± 0.41
5 | TTATAAATTTTTAATAGTACATAAAATTAAAGGTAA [XGTACX_site760] | 8.66 ± 0.21
6 | AATAAATGTCTGTTAATGCACACGATATGTCTATAT [CACACA_site2351] | 8.51 ± 0.2
7 | AGTGCATAATATTTATGTACGTATCACATATATTTT [XGTACX_site5166] | 8.58 ± 0.085
8 | TTTCTTTATTTATAATAATTTTTTATTAAAAATAGA [CACACA_negctrl_site1610] | 8 ± 0.35
9 | ATGTATCGTAACAAATGTACAAGAGGATGTTTAGAC [XGTACX_site3355] | 9.05 ± 0.48
10 | GATATATTTTGTTATGTAGATGTTGGTAGGAATTTT [GTGCAC_negctrl_site485] | 8.61 ± 0.5
11 | GTATTTATATGATTAACACACATATGTGGATTAATA [CACACA_site1315] | 8.44 ± 0.33
12 | ATATATATATATATATGTACGTAAACAAAAATTTAT [XGTACX_site6780] | 10.1 ± 0.4
13 | TATTGATAAAAAATATGTACATATATACATATATAT [XGTACX_site3821] | 8.48 ± 0.23
14 | TATATAACTACAAGAACACACATATAAATATAAATA [CACACA_site7210] | 8.79 ± 0.32
15 | GTAATTAAGATATATACACACAAAGGCTATTAAATA [CACACA_site6604] | 8.47 ± 0.52
16 | TAATATTACATTTATTGTACTTTGTTTTTATTTTAT [XGTACX_site1605] | 8.51 ± 0.42
17 | AATTATACTCACGTTACACACACACTAGATATATAT [CACACA_site6133] | 8.83 ± 0.54
18 | TTTTTTTTTTTTTTTTGTACATATATATAAAAAATA [XGTACX_site2772] | 8.18 ± 0.51
19 | CCCACAATGGTTTATATACACACTGTTGCAAATTCT [CACACA_site3066] | 8.65 ± 0.47
20 | ATTGAAAAAATACAATGTACATAGTAATACAAAGAA [XGTACX_site4142] | 8.94 ± 0.37
21 | TGTTTCTAAGAATTTACACACAAAATATTTCTACAT [CACACA_site7846] | 8.42 ± 0.45
22 | TAATACTTAATGAACACATGCACATATACATAGTAT [TGCATGCA_site496] | 8.66 ± 0.27
23 | TTAAAAATTAAAAGTAGTACATATAATATAAACATT [XGTACX_site424] | 8.41 ± 0.3

Row | Sequence | gcPBM binding intensity (ln)
24 | AAAAAAAAAAATTGCACACAAAAAAAAAAAAAAAAA [CACACA_site2073] | 8.2 ± 0.43
25 | AGACAATTTTTTAGTACACACATATAGATATATAAA [CACACA_site6832] | 8.59 ± 0.28
26 | CTTAAATCCATAATATGTACTTAAAAAGAAAAAATA [XGTACX_site4765] | 8.34 ± 0.4
27 | ATAATTATACAAAAGCGTACACGATATAAATCTACG [XGTACX_site8115] | 8.61 ± 0.27
28 | ATATGAACATTAAAAAAGTAAGGTATTCTCCCCTCT [CACACA_negctrl_site1299] | 8.48 ± 0.3
29 | GTATTATAAAAAGGAAGTACATATATACATATTATA [XGTACX_site1271] | 8.6 ± 0.32
30 | TTATAAAAAAAAAAAAAAAAAAAAACCAATATAATA [CACACA_negctrl_site968] | 8.07 ± 0.52
31 | TTTATTCTAAAATATTAAAAATGATTTGTTTTTTCA [CACACA_negctrl_site1751] | 7.78 ± 0.43
32 | TTTTAAAATAAAAAAATAAAAAAAGGGGAAAAAAAA [CACACA_negctrl_site847] | 8.37 ± 0.35
33 | CATATCAAAAAAAAATGTACACGTATATACAATACA [XGTACX_site2660] | 8.56 ± 0.42
34 | TATAATATGTTTGATGGTACACGTAAACACCTTGCA [XGTACX_site1643] | 8.68 ± 0.3
35 | ATATACTTATATATTGCACACATCTAATATTTTGAA [CACACA_site3165] | 8.62 ± 0.23
36 | ATAACTAAATTATATTGTACAAAATAATTATATATT [XGTACX_site1188] | 8.35 ± 0.33
37 | ATACACGTTTTACAATGTACAGAAAGTATACATAAT [XGTACX_site4585] | 8.74 ± 0.46
38 | TTTAATCAACAAAATCTACACACTAATATGAAATAT [CACACA_site9250] | 8.32 ± 0.58
39 | TATTATATATATAAATGTACATATTATTTTTCTTTT [XGTACX_site8670] | 8.69 ± 0.28
40 | GTATTTTTTTTCTTTTGTACATATATATAAAGAATA [XGTACX_site4569] | 8.85 ± 0.41
41 | AAGAATTTTCGATTTGCACACATTTGTAAAATAAAA [CACACA_site2354] | 8.22 ± 0.23
42 | AATTTAAAAAATAATTGTACAAAAAAAAAAAATCAG [XGTACX_site4576] | 8.94 ± 0.57
43 | GTTAATATTTTTGGGGGTACTTAAAAAAAAAAAAAA [XGTACX_site1477] | 9.35 ± 0.26
44 | TTACATACAATTGGTGTGCACATATATATATATATA | 10.3 ± 0.33
45 | CAAAAGGATAGGCACACACACACACCGATATATATA [CACACA_site8685] | 8.84 ± 0.38
46 | GAATATTAATTCAAGTGTACAAATATATATATAATT [XGTACX_site5103] | 8.62 ± 0.35

Row | Sequence | gcPBM binding intensity (ln)
47 | ATAATATAAATATACACACACACATATATATATATA [CACACA_site2905] | 10 ± 0.29
48 | TAATAAGGAATTTATAGTACATATTCATATGTTTTA [XGTACX_site2331] | 8 ± 0.29
49 | ATAAAAATTTATATATGTACTTAATTTTTAATTTTT [XGTACX_site7482] | 8.38 ± 0.4
50 | TATGTTTTTGAATGAGTGCATTAAAATAAAACATTT | 8.72 ± 0.28
51 | TTCTTGTATATTCATAGTACATATAATGTCGTGTTA [XGTACX_site8991] | 8.72 ± 0.4
52 | AAATAAAGAAATGCAAGTACATACTAAACTAATCCA [XGTACX_site1209] | 8.61 ± 0.42
53 | ATATATATTATAATCTGTACATAAATATATAATAAA [XGTACX_site5425] | 8.39 ± 0.33
54 | TTGTTTTATACATAGTGTACATATAAAAATTTTTTT [XGTACX_site7549] | 8.65 ± 0.28
55 | TCTTAAATTATGATAAAATATAATAAATAAATAAAT [CACACA_negctrl_site1520] | 8.31 ± 0.34
56 | CAGATAAATAAACACACACACACATATATATATATA [CACACA_site9311] | 10.1 ± 0.26
57 | ATATATAAATATGAAACACACATTCTATTTAATTCG [CACACA_site1450] | 8.2 ± 0.42
58 | ATTTTCCCTAGAATATGTACACATAGTAAATATTAT [XGTACX_site7499] | 8.36 ± 0.36
59 | TATGTTTCTATATATACATGCAAGAAGAAATGTACT [TGCATGCA_site891] | 9 ± 0.37
60 | ATATGTACAAATTATACACACATGTACAATTATATA [CACACA_site1253] | 8.63 ± 0.28
61 | AAAAAAAAAAAAGAAAAATATATATATAAATAAATA [GTGCAC_negctrl_site569] | 8.29 ± 0.67
62 | ATGTCACAATTTTTCACACACAAAATTTATATACAT [CACACA_site2030] | 8.74 ± 0.4
63 | ATAAATATTGCGTGCACACACATAATATTTATATAT [CACACA_site7136] | 8.58 ± 0.099
64 | TATAATATATTCATGTGTACATATATTTCGAACATA [XGTACX_site1754] | 8.62 ± 0.33
65 | CGAAAAATATGTATGAGTACTTATATTTAAACTATA [XGTACX_site1911] | 8.37 ± 0.3
66 | CATTCCTATTATTATACACACAAATTAAGAATTCAA [CACACA_site787] | 8.44 ± 0.42
67 | ATGTCATAAAAACATATACACACTTGAAATATAAAA [CACACA_site2329] | 8.5 ± 0.41
68 | ATTTTTTTGTTAATTTGTACATAAAATTTTATTTTA [XGTACX_site7007] | 8.72 ± 0.42
69 | ATATTTATTTTATAAAGTACTAAAAAATATATTATA [XGTACX_site8522] | 8.19 ± 0.37

Row | Sequence | gcPBM binding intensity (ln)
70 | AAAAAAAAAAAAAAAACACACAAACGCTTTTTTTTT [CACACA_site4545] | 8.77 ± 0.17
71 | GGATAAGAGGCATATACACACAATTTAAAAAAATAA [CACACA_site4657] | 8.59 ± 0.53
72 | TATATTTATACTTATACACACATTATTGAATTAACC [CACACA_site934] | 8.45 ± 0.42
73 | AAAATATTTATTCCTAGTACTTACCATTATATATAT [XGTACX_site363] | 8.8 ± 0.4
74 | AAAAAAAAATGAAAAGAAAAAAAAAGAAAAAAGGGA [CACACA_negctrl_site287] | 8.61 ± 0.67
75 | CTTTATATATTTTATTGTACTTAAAAAAAAAAAAAA [XGTACX_site2134] | 8.2 ± 0.49
76 | AAAAAATATGCATATACACACATATGTATAAATAAC [CACACA_site7090] | 8.88 ± 0.49
77 | AGTGTAAGCTAAGTGGTGCGTTGAATAAGGTTTTTT [GTGCAC_site9951] | 8.82 ± 0.2
78 | TATAGGTATTTGTATACACACAAATGTATATATCTA [CACACA_site6713] | 8.19 ± 0.27
79 | ATTATTTATATTTGGAGTACTTATAATATTTTTATA [XGTACX_site1289] | 8.54 ± 0.26
80 | TATATATATAATATATGTACTCATATTAAGAGATAC [XGTACX_site1354] | 8.82 ± 0.11
81 | AAGAGGATACACAATGTGCACTTTTTTTTTTTTTTT [GTGCAC_site9415] | 8.78 ± 0.23
82 | TATACAGATATATATACACACATATATATAAATACA [CACACA_site4383] | 8.44 ± 0.3
83 | ATAAATAAAACAAATAGTACAATATAAAAAAAAAGG [XGTACX_site87] | 8.86 ± 0.3
84 | AAAAAAAAAAAAAACACACACACACGCATACACATA [CACACA_site7364] | 8.71 ± 0.61
85 | AATGAGCTTTTTAAAAGTACTAAATATAAATAAATA [XGTACX_site3632] | 8.46 ± 0.3
86 | TATATATGTATATTTTGTACGTATTTATTTACATGA [XGTACX_site4584] | 8.41 ± 0.29
87 | TATTACTTAAATAAAAGTACATATAACATTTTAGTT [XGTACX_site196] | 8.16 ± 0.33
88 | AATAGTTGCTAAAGGTGTACAATACATTTATTAGAA [XGTACX_site2773] | 8.71 ± 0.25
89 | TGTATAGTCTAAAGTTGTACAAAAAAAAAAAAAAAA [XGTACX_site5764] | 8.39 ± 0.41
